The source of these data is the RNAGym collection of RNA variant scans (doi:10.1101/gad.245936.114).

Variants at the floor of the assay are shown more often than the library holds them.

The labels stand for the following.
B1: tRNA (parent)
chain: CUCUCGGUAGCCAAGUUGGUUUAAGGCGCAAGACUUUAAUUUAUCACUACGAAAUCUUGAGAUCGGGCGUUCGACUCGCCCCCGGGAGAUUUUUUCCUCGAGCAA

In the series the parent is B1. Briefly: nonsense suppression (GFP-seq) (ratio to wild type); higher = more function; SUP4oc tRNA, yeast GFP reporter sort-seq. In short, it runs like this: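 Sorted GFP/RFP bins of yeast were each Illumina-sequenced with a phred ≥30 cutoff; the cells held a genome-integrated ochre-suppressor tRNA variant from a library with ~3% random mutations, a galactose-driven GFP ochre reporter, and RFP. Culture was in raffinose/galactose medium containing 80 mg/L adenine. Nonsense suppression, termed GFPSEQ, is the median GFP/RFP of the bins weighted by each variant's estimated cell share per bin, relative to the unmutated parent tRNA, for variants reaching ≥100 reads and ≥30 cells.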
Consider CUCUCGGUAGCCAAGUUGGUUUAAGGCGCAAGACUUUAAUUUAUCACUACGAAAUGUUGAGGUCGGGCGUUCGACUCGCCCCCGGGAGAUUUUUUCCUCGAGCAA, for which the nonsense suppression was at most 0.026. With CUCUCGGUAGCCAAGUUGGUUUAAGGCGCAAGACUUUAAUUUAUCACUACGAAAUCUUGAGAUCGGGCGUUCGACUCGCCCCCGGUCGAUUUUUUCCUCGAGCAA, the nonsense suppression was at most 0.026.

As for CUCUCGGUAGCCACGUUGGUUUAAGGCUCAAGACAUUAAUUUAUCACUACGAAAGCUUGAGAUCGGGCGUUCGACUCGCCCCCGGGAGAUUUUUUCCUCGAGCAA, the nonsense suppression is at most 0.026. Regarding CUCUCGGUAGCCAAGUUGGUUUAAGGAGCAUGACUUUAAUUUAUCACUACGAAAUCUUCAGAUCGCGCGUUCGACUCGCCCCCGGGAGAUUUUUUCCUCGAGCAA, the nonsense suppression was at most 0.026. Regarding CUCUCGGUAGCCAGGUUGGUUUAAGGCGCAAGACUUUAAUUUAUCACUACGAAAUCUUGAGAUAAGGCGUUCGACUCGCCCCCGGGAGAUUUUUUCCUCGAGCAA, the nonsense suppression is at most 0.026. With CACUCGGUAGCCAAGUUGGUUUAAGGCGCAAGACUUUAAUUUAUCACUACGAAAGCUUGUGAUCGAGCGUUCGACUCGCCCCCGGGAGAUUUUUUCCUCGAGCAA the figure was at most 0.026; with CUCUCGGUAGCCAAGUGGGUUGAAGGCGCAAGACUUUAAUUUAUCACUACGAAAUCUUGAGAUCGGGCGUUCGACUCGCCCCCGGGAGAUUUUUUCCUCGAGCAA, 1.04.

CUCGCGGUAGCGAAGUUGGUUUAAGGCGCAAGACUUUAAUUUAUCACUACGAAAUCUUGAGAUCGGGCGUUCGACUCGCCCCCGCGAGGUUUUUUCCUCGAGCAA: the nonsense suppression is at most 0.026. In the case of CUCUCGGUAGCCAUGUUGGUUUAAGGCGCACGACUUUAAUUUAUCACUACGAAAUCUUGAGAUCGGUCGUUCGACUCGCCCCCGGGAGAUUUUUUCCUCGAGCAA, the nonsense suppression was at most 0.026.

With CUCUCGGUAGCCAACCUGGUUUAAGGCGCAAGACUUUAAUUUAUCACUACGAAAUCUUGAGAUCGGGCGUUCGAAUCGCCCCCGGGAGAUUUUUUCCUCGAGCAA, the nonsense suppression is at most 0.026. With CUCUCGGGAGCCAAGAUGGUUUAAGGCGCAAGACUUUAAUUUAUCACUACGAAAUCUUGAGAUCGGGCGUUCGAGUCGCCCCCGGGAGAUUUUUUCCUCGAGCAA, the nonsense suppression is at most 0.026.

Regarding CUCUCGGUAGCCAAGUUGGUUUAAGGCGCAAGACUUUAAUUUAUCACUACGAAAUCUUGAGAUCCGGCGUUCUACUCGCCACCGGGAGAUUUUUUCCUCGAGCAA, the nonsense suppression is at most 0.026. With CUCUCGGUAGCCAAGUUGGUUUAAGGCGCAAGACUUUAAUUUAUCACUACGAAAUCUUGAGAGCGGGCGAUCGGCUCGCCCCCGGGAGAUUUUUUCCUCGAGCAA the figure was at most 0.026; with CUCUCGGUAGCCAAGUUGUGUUAAGGCGCAAGACUUUAAUUUAUCACUACGAAAUCUUGAGAUCGGGCGUUCGACUCGCCCCCAGGAGAUUUUUUCCUCGAGCAA, at most 0.026. Under CUCUCGGUAGCCAAGUUGGUUUAAGGCGCAAGACUUUAAUUUAUCACUACGAAAUCUUGAUAUCGGGCGUUCGACUCGCCACCGGGAGAUUUUUUCCUCGAGCAA stands at most 0.026; under CUCUCGGUAGCCAAGUUGGCUUAAGGCGCAAGUCUUUAAUUUAUCACUACGAAAUCUUGAGAUCGGGCGUUCGACUCGCCCCCGGGAGAUUUUUUCCUCGAGCAA, at most 0.026. On to CUCUCGGUAGCCAAGUUGGUUUAAGGCGCAAGACUUUAAUUUAUCACUACGAAAUCUUUAGAUCGGGCGUUCCACUCGCCCCCGGGAGAUUUUUUCCUCGAGCAA, for which the nonsense suppression was at most 0.026.

Turning to CUCUCGGUAGCCAAGUUGGUUUACGGCGCCAGACUUUAAUUUAUCACUACGAAAUCUUGAGAUCGUGCGUUCGACUAGCCCCCGGAAGAUUUUUUCCUCGAGCAA, the nonsense suppression is at most 0.026. Turning to CUCUCGGUAGCCACGAUGGUUUAAGGCGCAAGACUUUAAUUUAUCACUACGAAAUCUUGAGAUCGGGCGUUCGACUCGCCCCCGGGAGAUUUUUUCCUCGAGCAA, the nonsense suppression is at most 0.026. On to CUUUCGGUAGCCAAGUUGGUUUUAGGCGCCAGACUUUAAUUUAUCACUACGAAAUCUUGAGAUCGGGCGUUCGACUCGCCCCCGGGAGAUUUUUUCCUCGAGCAA, for which the nonsense suppression was at most 0.026. In the case of CUCUCGGUAGCCAAGUUGGUUUAAGGCGCAAGACUUUAAUUUAUCACUACGAAAUCUGGAGAUCGCGCGUUCAACUCGCCCCCGGGAGAUUUUUUCCUCGAGCAA, the nonsense suppression is at most 0.026. With CUCUCGGUAGCCAAGUUGGUUUAAGGCGCAAUACUUUAAUUUAUCACUACGAAACCUUGAGAUCGGGCGUUCGACUCGCCCCCGGGAGAUUUUUUCCUCGAGCAA the figure was at most 0.026; with CUCUCGGUAGCCAAGUUGGUUUAAGGCGUAGGACUUUAAUUUAUCACUACGAAAUCUUCAGAUCGGGCGUUCGACUCGCCCCCGGGAGCUUUUUUCCUCGAGCAA, at most 0.026; with CUCUCGGUACCCAAUUUGGUUUAAGGCGCAGGACGUUAAUUUAUCACUACGAAAUCUUGAGAUCGGGCGAUCGACUCGCCCCCGGGAGAUUUUUUCCUCGAGCAA, at most 0.026.

Consider CUCUCGGAAGCCAAGUUGCUUUAAGGCGCAAGACUUUAAUUUAUCACUACGAAAUCUUGGGAUCGGGCGUUCGACUCGCCCCCGGGAGAUUUUUUCCUCGAGCAA, for which the nonsense suppression was at most 0.026.

Turning to CUCUCGGUAGCCAAGUUGGUUUAAGGGGCAGGACUUUAAUUUAUCACUACGAAUUCUUGAGAUCGGGCGCUCGACUCGCCCCCAGGAGAUUUUUUCCUCGAGCAA, the nonsense suppression was at most 0.026. With CUCGCGGUAGCCAAGUUGGUUUAAGGCGCAAGACUUUAAUUUAUCACUACGAAAUCUUGAUACCGGGCGUUCGACUCGCCCCCGGGAGAUUUUUUCCUCGAGCAA the figure was at most 0.026.
